Measurements from the supplement of paper PMC3334620.
Over roughly 33,000 sequences, “E-score (-0.5 to 0.5)” has its median near -0.036; the highest 2% begin near 0.37. Some of the results follow.

Biological target: T1, Yer064c (UniProt P40041)
T1 sequence: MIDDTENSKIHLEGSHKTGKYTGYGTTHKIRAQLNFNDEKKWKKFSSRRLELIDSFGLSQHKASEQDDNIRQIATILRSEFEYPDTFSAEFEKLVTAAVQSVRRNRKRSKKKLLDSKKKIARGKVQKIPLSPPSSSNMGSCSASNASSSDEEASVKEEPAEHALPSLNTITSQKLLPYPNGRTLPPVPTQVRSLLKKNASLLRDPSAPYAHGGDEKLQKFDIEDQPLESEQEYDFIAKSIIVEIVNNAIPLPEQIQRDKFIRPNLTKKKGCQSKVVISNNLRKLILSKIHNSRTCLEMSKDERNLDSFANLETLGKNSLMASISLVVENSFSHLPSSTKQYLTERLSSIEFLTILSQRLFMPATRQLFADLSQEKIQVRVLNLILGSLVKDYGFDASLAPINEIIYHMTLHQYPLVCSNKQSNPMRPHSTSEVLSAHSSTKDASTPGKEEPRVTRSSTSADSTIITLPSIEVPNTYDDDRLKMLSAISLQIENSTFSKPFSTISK
Assay: PBM E-score (8-mer binding enrichment) (E-score (-0.5 to 0.5)); higher = stronger / more preferred TF binding; most listed sequences are background and not binding sites
Conditions: protein concentration: 200 nM; construct: GST-full length
Outline: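 Masliner-normalised scans of fluorescent anti-GST signal were the basis for scoring. That signal came from GST-tagged yeast transcription factors applied at about 100-200 nM to double-stranded universal all-10-mer Agilent arrays on fresh or once-stripped slides. Each ungapped eight-base word, pooled with its reverse complement, received an E-score from the Universal PBM Analysis Suite.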

First: AATGACGT
Second: ATAGCTAT
The “PBM E-score” value of the first is lower: -0.00627 for the first, 0.0423 for the second.

Going from CATCCGCG to AAGTACTA, the “PBM E-score” value rises from -0.111 to 0.0859.

Going from GTCTGACA to ACGCGTCA, the “PBM E-score” value falls from 0.195 to 0.111.

Compared with GAATCCGC, ACCCAGGG is lower in “PBM E-score” value: 0.00832 for the first, -0.187 for the second.

Compared with TAACATCA, CCGACCGC is lower in “PBM E-score” value: 0.156 for the first, -0.317 for the second.

Compared with TAGGACGA, AGACCGTG is lower in “PBM E-score” value: 0.131 for the first, -0.0409 for the second.

Compared with ACGTGAGC, AATCTACT is higher in “PBM E-score” value: -0.0418 for the first, 0.0949 for the second.

Going from GCATCGAA to GCATCACA, the “PBM E-score” value rises from -0.284 to -0.114.

Compared with GTCTTGCA, AGCTCGCC is lower in “PBM E-score” value: 0.0404 for the first, -0.063 for the second.

First: ATTCGTGG
Second: CTGCGGGA
The “PBM E-score” value of the first is higher: 0.186 for the first, -0.0999 for the second.

Compared with GCCTACAC, CGAAACAG is higher in “PBM E-score” value: -0.141 for the first, 0.0527 for the second.

First: TGCGTGAA
Second: AACACCGA
The “PBM E-score” value of the first is higher: 0.00044 for the first, -0.126 for the second.

Compared with AAGGGGTA, GCTACCAC is higher in “PBM E-score” value: -0.176 for the first, -0.0822 for the second.

Compared with CAGCTGTC, AGGTGCAT is lower in “PBM E-score” value: -0.00962 for the first, -0.109 for the second.

First: AGACATGC
Second: AACTCTCC
The “PBM E-score” value of the first is higher: 0.0914 for the first, -0.159 for the second.

Compared with AAACTCAT, AGCCACAC is lower in “PBM E-score” value: 0.286 for the first, 0.112 for the second.

First: CGACTACG
Second: CTGATACA
The “PBM E-score” value of the first is higher: 0.337 for the first, 0.0545 for the second.

Going from CGCAGATC to CGAGTCAA, the “PBM E-score” value rises from -0.143 to 0.444.

First: TAAACTCA
Second: CGGCGCCG
The “PBM E-score” value of the first is higher: 0.201 for the first, -0.125 for the second.

First: ATGCATGA
Second: CTAGACTC
The “PBM E-score” value of the first is lower: 0.166 for the first, 0.212 for the second.

Compared with AAGCCTAA, CAATTGTG is higher in “PBM E-score” value: -0.0456 for the first, 0.0199 for the second.

First: AAGTCTCC
Second: CATGAGCA
The “PBM E-score” value of the first is higher: 0.107 for the first, -0.00331 for the second.

First: ATACCGTC
Second: CTTCATTA
The “PBM E-score” value of the first is lower: -0.126 for the first, 0.119 for the second.

First: CGACATGA
Second: TAGCTTCA
The “PBM E-score” value of the first is higher: 0.231 for the first, -0.2 for the second.

Going from GGACCAAC to AGCTGACG, the “PBM E-score” value falls from -0.131 to -0.134.

First: ATATTCTA
Second: CGAGGTAC
The “PBM E-score” value of the first is lower: 0.0462 for the first, 0.0931 for the second.

First: AAATGGGC
Second: CTACTTCC
The “PBM E-score” value of the first is lower: -0.187 for the first, -0.0232 for the second.

First: TAGTGATA
Second: CATATGTA
The “PBM E-score” value of the first is lower: -0.161 for the first, 0.0706 for the second.

Going from CTGTCCTC to ACGCTACG, the “PBM E-score” value rises from -0.159 to -0.135.

Going from GACGTAGC to GTATGTGA, the “PBM E-score” value rises from -0.183 to 0.204.

Going from CGTAAACA to GTCAGGTA, the “PBM E-score” value rises from -0.0207 to 0.199.

Compared with ATAGAGCA, ACACCCAG is higher in “PBM E-score” value: -0.176 for the first, -0.0229 for the second.

Compared with TCCCTTCA, AACATCGG is lower in “PBM E-score” value: 0.091 for the first, -0.223 for the second.

Compared with CTATCCAA, AATAAGGG is lower in “PBM E-score” value: 0.0707 for the first, -0.169 for the second.

Compared with AGCATCTA, GGCACCTA is lower in “PBM E-score” value: -0.197 for the first, -0.227 for the second.

Compared with CACATCGG, AGTAATTC is lower in “PBM E-score” value: 0.122 for the first, -0.0585 for the second.

Going from AGTCGAGC to AAACATTG, the “PBM E-score” value falls from 0.0697 to -0.0364.

Going from AGAGAATA to GCAGCCTA, the “PBM E-score” value falls from 0.0687 to -0.315.

Compared with GTGCATTA, TGTATACA is higher in “PBM E-score” value: -9e-05 for the first, 0.112 for the second.

Compared with CGAATCCA, ATTTAAGC is lower in “PBM E-score” value: -0.00595 for the first, -0.0436 for the second.

First: ACTTTGAC
Second: ATGAAGCA
The “PBM E-score” value of the first is higher: 0.292 for the first, -0.183 for the second.

Going from AACCCAAC to ACTAGAAA, the “PBM E-score” value rises from 0.0746 to 0.118.

Going from GATTCCTA to TAGTCCCA, the “PBM E-score” value falls from 0.27 to 0.201.

Going from CATTAGCG to AGCGCATG, the “PBM E-score” value falls from -0.0726 to -0.108.

Going from AGAGATGA to ATGCTCAG, the “PBM E-score” value falls from 0.268 to -0.00028.

Compared with AGCAGAAA, CTCAATAC is higher in “PBM E-score” value: -0.0226 for the first, 0.101 for the second.

Compared with GTTCATGA, CATTTTGC is lower in “PBM E-score” value: 0.282 for the first, -0.0161 for the second.

First: CATCAACC
Second: GGTCAACA
The “PBM E-score” value of the first is lower: 0.159 for the first, 0.186 for the second.

Going from AACCAGCG to AGGGATAC, the “PBM E-score” value falls from -0.179 to -0.299.

Compared with CCTTTTCC, GTTGCTGA is higher in “PBM E-score” value: -0.258 for the first, 0.197 for the second.

Compared with ACAAACAC, AAACGAAC is lower in “PBM E-score” value: 0.0393 for the first, -0.00696 for the second.

First: CGCTACCA
Second: GGAGATGA
The “PBM E-score” value of the first is lower: -0.2 for the first, 0.246 for the second.

First: TACGAGCA
Second: GGTGATGA
The “PBM E-score” value of the first is lower: -0.156 for the first, 0.191 for the second.

First: CAACACCA
Second: GACCTCTA
The “PBM E-score” value of the first is higher: -0.0115 for the first, -0.0732 for the second.

First: CAAGTAGG
Second: AAACACGC
The “PBM E-score” value of the first is higher: -0.0276 for the first, -0.181 for the second.

Compared with GTCATAAA, ACGTCGCG is lower in “PBM E-score” value: 0.239 for the first, 0.00147 for the second.

Compared with GACGATCA, AACATCGC is lower in “PBM E-score” value: 0.0561 for the first, -0.25 for the second.

Going from GCTTTGGA to CAACTCCA, the “PBM E-score” value falls from -0.109 to -0.278.

Going from AATTGGAT to CTTATTCA, the “PBM E-score” value falls from 0.0801 to -0.0272.

Compared with TAATAAGA, ATTAAAAT is higher in “PBM E-score” value: 0.101 for the first, 0.143 for the second.

Compared with ATCCCTGG, CGGGACTC is higher in “PBM E-score” value: -0.0925 for the first, 0.266 for the second.

First: CGGAGTAA
Second: GACGTGGC
The “PBM E-score” value of the first is higher: 0.0591 for the first, -0.181 for the second.

CGTCGAGA and AATAACTA are the same in “PBM E-score” value: 0.0495 for the first, 0.0495 for the second.

First: AGAAATAT
Second: AAAACATT
The “PBM E-score” value of the first is lower: -0.0573 for the first, 0.0184 for the second.

First: CCATTAAG
Second: GCAATGAC
The “PBM E-score” value of the first is lower: 0.0188 for the first, 0.322 for the second.

Going from TCCCACAA to CGGTAGTC, the “PBM E-score” value rises from 0.095 to 0.409.

Compared with GAAGTCTA, ACCAGGCG is lower in “PBM E-score” value: -0.011 for the first, -0.146 for the second.

First: ATGCAAGA
Second: AGGATAAT
The “PBM E-score” value of the first is higher: 0.139 for the first, 0.0639 for the second.

First: AGCATCGA
Second: AACATCTT
The “PBM E-score” value of the first is higher: -0.157 for the first, -0.205 for the second.

First: TGTGCGAA
Second: CTGCCCGC
The “PBM E-score” value of the first is higher: 0.0012 for the first, -0.00975 for the second.

Going from GACCTTTA to GCACGGGA, the “PBM E-score” value falls from -0.0143 to -0.145.

Going from GAAGCGTA to CGGTTATA, the “PBM E-score” value falls from -0.151 to -0.175.

Going from AATCTATC to AACTGGAT, the “PBM E-score” value falls from -0.0431 to -0.0845.

Compared with ACTGAGGC, AATACTCC is higher in “PBM E-score” value: -0.0486 for the first, 0.0962 for the second.

Compared with CAGTGCCC, CTTATCCC is higher in “PBM E-score” value: -0.277 for the first, -0.147 for the second.

Compared with GAACTAAC, CGTCGGGC is lower in “PBM E-score” value: -0.0243 for the first, -0.267 for the second.

Compared with CGATAACC, GCCTCTAA is lower in “PBM E-score” value: -0.146 for the first, -0.235 for the second.

First: CCTTTCCA
Second: ATCCATCA
The “PBM E-score” value of the first is lower: -0.169 for the first, 0.129 for the second.

Going from GGTCAGAC to ATTTTGTC, the “PBM E-score” value falls from 0.0361 to -0.00252.

Compared with GGCGAGAC, AAGTTATT is higher in “PBM E-score” value: 0.0649 for the first, 0.072 for the second.

Going from CAGTCGAA to GATCTGAA, the “PBM E-score” value rises from -0.0398 to 0.11.

First: ACGCTAAA
Second: GGCCATCA
The “PBM E-score” value of the first is higher: 0.0957 for the first, -0.279 for the second.

First: ACCTTCAT
Second: CCTAGGAA
The “PBM E-score” value of the first is lower: -0.206 for the first, -0.181 for the second.

First: ATAAAGTG
Second: AATGGAAT
The “PBM E-score” value of the first is higher: 0.0774 for the first, -0.0403 for the second.

Compared with CCTTTACG, CTGAAGCC is higher in “PBM E-score” value: -0.104 for the first, 0.111 for the second.

Going from GATGTCTA to CAGTACGC, the “PBM E-score” value falls from 0.273 to -0.0802.
